Measurements from PubChem BioAssay AID686978 (National Center for Advancing Translational Sciences (NCATS), 2013).
In all, about 420,000 compounds went through this assay and about 64,000 (15%) were called active. The inconclusive results got no clear call from the source; some entries with a clear call stand among them for comparison. Calls follow the shape of the dose curve; as a rule, active = well fitted inhibition curve with a large enough effect; inconclusive = small, poorly fitted or top-dose-only effect; inactive = flat fitted curve, though single readings scatter. Potencies of inconclusive entries are left out as doubtful fits.

Assay: qHTS for Inhibitors of human tyrosyl-DNA phosphodiesterase 1 (TDP1): qHTS in cells in absence of CPT; also: nearly all actives have a fitted effect of over 55% in size
Details: DT40 Tdp1-/- hTDP1 cells, no CPT, ATP luminescence, 48 h; activity change, negative = growth inhibition: at 46.2 µM (top of the series) unless noted
In short: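 No-CPT arm: Tdp1-/-;hTDP1 DT40 cells (400/well) plus compounds, incubated ≥48 hr at 37 °C. Readout CellTiter-Glo luminescence.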
% is scaled to controls: 0 for no effect and ±100 for the full control effect; potency is read from the fitted curve at half-maximal effect; tags tell the direction and shape of the fitted curve.

SMILES | activity change, negative = growth inhibition | Potency
CCOc1ccc(NC(=O)CN(C)C(=O)CCNC(=O)c2ccco2)cc1OCC | inactive: 15.1% | –
COc1ccc(NC(=O)c2cn(-c3ccccc3)nc2-c2ccc(C)cc2)cc1 | – | inconclusive [inhibitor, single point]
O=C(c1cnccn1)N1CCC2(CCN(Cc3cc(C(F)(F)F)cc(C(F)(F)F)c3)CC2)CC1 | – | inconclusive [inhibitor, partial curve, poor fit]
O=C(Nc1ccc(F)cc1F)c1cc2n(n1)C(C(F)(F)F)C1CCCCC1N2 (stereo not given) | – | inconclusive [inhibitor, single point]
CC(C)COC(=O)c1cccc2c1-c1ccccc1/C2=N\O | inactive: -19.1% | –
CCC(C)Nc1c2c(nc3c(-c4ccccc4)c(C)nn13)CCC2 (stereo not given) | – | inconclusive [inhibitor, single point]
COCCN(Cc1nnc(-c2cccs2)o1)C(=O)CN1C(=O)NC2(CCCCC2)C1=O | – | inconclusive [inhibitor, single point]
O=C(CCCc1c[nH]c2ccccc12)NCc1ccccc1F | inactive: -9.81% | –
COc1ccc(C2=NS(=O)(=O)N(C)C(C(=O)NCc3ccccn3)=C2)cc1OC | inactive: -16.8% | –
COCCNC(=O)CSc1nnc(NC(=O)C2CC(=O)N(c3ccccc3OC)C2)s1 (stereo not given) | inactive: -18.5% | –
O=c1[nH]nc(Br)c(=O)n1C(c1ccccc1)c1ccccc1 | – | inconclusive [inhibitor, single point]
Cc1ccc(NC(=O)CCl)cc1S(=O)(=O)N1CCCCCC1 | – | active: 2.59 µM
CC1CCN(C(=O)COC(=O)c2cc(=O)[nH]c3ccccc23)CC1 | inactive: 2.47% | –
O=C(Nc1ccc(Br)cc1)c1cccc(S(=O)(=O)Nc2cnc3ccccc3c2)c1 | – | inconclusive [inhibitor, single point]
COCCSc1nnc(NC(=O)Cc2ccc(OC)c(OC)c2)s1 | – | inconclusive [inhibitor, single point]
FC(F)(F)COc1ccc(-c2nnc(SCc3ccccc3)o2)cn1 | inactive: 3.88% | –
Cc1c(Cl)cccc1NC(=O)CN1C(=O)COc2ccc(S(=O)(=O)Nc3ccccc3)cc21 | – | inconclusive [inhibitor, single point]
COC(=O)Cc1csc(NC(=O)CSc2nnc3ccccn23)n1 | – | inconclusive [inhibitor, single point]
CCC(=O)Nc1cccc(NC(=O)CSc2nnnn2C2CCCC2)c1 | inactive: -14.2% | –
COc1ccc(-c2c([C@H]3[C@@H]4C=CCC[C@@]4(C)C(=O)N3Cc3ccccc3)ccc3ccccc23)cc1OC | – | inconclusive [inhibitor, single point]
CCOC(=O)N/N=C/c1cc(C)n(-c2ccccc2)c1C | – | inconclusive [inhibitor, single point]
COC(=O)c1ccc(C(=O)OC)c(NC(=S)N2CCN(c3cccc(Cl)c3)CC2)c1 | – | inconclusive [inhibitor, single point]
CN(Cc1ccccc1)c1cc(Cl)nc(N)n1 | inactive: -14.6% | –

SMILES | activity change, negative = growth inhibition | Potency
CC(=O)c1sc(NC(=O)COc2ccc(Cl)cc2C)nc1C | inactive: -0.954% | –
O=C(Nc1ccccc1C(=O)Nc1nccs1)c1ccccc1 | – | inconclusive [inhibitor, single point]
COc1ccc2oc(C)c(NC(C)=O)c2c1 | inactive: 1.12% | –
Cc1cc(N2CCCC2=O)ccc1S(=O)(=O)Nc1c(C)nn(C)c1C | – | active: 9.2 µM
CCOc1ccc(NC(=O)C2CC(=O)N=C(N)S2)cc1 (stereo not given) | inactive: -4.41% | –
Cc1c(NS(=O)(=O)c2cccc(C(=O)Nc3ccc(SC(F)F)cc3)c2)c(=O)n(-c2ccccc2)n1C | – | inconclusive [inhibitor, single point]
COc1ccccc1C(=O)Nc1nnc(SCC(=O)NCc2ccco2)s1 | – | inconclusive [inhibitor, single point]
COC(=O)Nc1sc2c(c1C(N)=O)CCCCCC2 | – | active: 20.6 µM
COc1cccc(-n2c(SCC(=O)NC3CCCCC3)nc3n[nH]c(C)c3c2=N)c1 | – | active: 18.4 µM
COc1cc2cc(CN(Cc3nnnn3Cc3ccccc3)CC3CCCO3)c(=O)[nH]c2cc1OC (stereo not given) | – | inconclusive [inhibitor, single point]
O=C(CSc1nc2ccccc2nc1Cc1ccccc1)Nc1ccc2c(c1)OCO2 | – | inconclusive [inhibitor, partial curve, poor fit]
CN(C)S(=O)(=O)c1ccc(NC(=O)CSc2nc3ccccc3n2-c2ccccc2)cc1 | – | active: 20.6 µM
CC(=O)Nc1ncc(Cc2cccc(Cl)c2)s1 | inactive: -7.97% | –
COc1ccc(-c2cc(C(F)(F)F)n3nc(C(=O)N4CCN5CCCC5C4)cc3n2)cc1OC (stereo not given) | – | inconclusive [inhibitor, single point]
C[C@H](CO)N1C[C@H](C)[C@@H](CN(C)S(=O)(=O)c2ccc(F)cc2)Oc2ccc(NC(=O)Cc3ccccc3)cc2C1=O | – | inconclusive [inhibitor, partial curve]
C=CCn1c(SCC(=O)c2ccc(Cl)s2)nc2ccccc2c1=O | – | inconclusive [inhibitor, single point]
CC(C)c1c(O)ccc2c1CCC1C(C)(C)CCC[C@@]21C (stereo not given in full) | – | inconclusive [inhibitor, single point]
CCN(CC(=O)Nc1c(F)cccc1F)C(=O)C1COc2ccccc2O1 (stereo not given) | – | inconclusive [inhibitor, single point]
CC(C)NS(=O)(=O)c1ccc2nc(NC(=O)c3cncc(Br)c3)sc2c1 | – | inconclusive [inhibitor, single point]
O=C(CSC1=NC2(CCCCCC2)N=C1c1ccccc1)Nc1ccc2c(c1)OCCO2 | – | inconclusive [inhibitor, single point]
CN(C(=O)CSc1ncnc2sc(-c3ccccc3)cc12)C1CCS(=O)(=O)C1 (stereo not given) | – | inconclusive [inhibitor, single point]
CC(C)C1Cc2[nH][nH]c(=O)c2C(C2CC2)O1 (stereo not given) | inactive: -18.1% | –
